Test results reported in PubChem BioAssay AID743262 (National Center for Advancing Translational Sciences (NCATS), 2014).
The campaign covered roughly 1,300 compounds. About 25 (2%) were called active. About 9% were inconclusive and are not listed. Calls come from the whole dose curve; as a rule, active = well fitted activation curve with a large enough effect; inconclusive = small, poorly fitted or top-dose-only effect; inactive = flat fitted curve, though single readings scatter. This is one part of the list.

biological target: Glucagon-like peptide 1 receptor (Homo sapiens) (UniProt P43220); assay: qHTS of GLP-1 Receptor Agonists: Hit Validation; conditions: HEK293 GLP-1R, cAMP-response luciferase, 4-6 h; series mostly up to 46.1 µM; activation: at the top concentration; note: % of control where 0% means no effect
Procedure, shortened: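 Luminescence from a cAMP-responsive luciferase reporter was read 12 min after detection reagent at RT. Before that, HEK293 cells stably expressing GLP-1R plus reporter, seeded 12 h earlier, were exposed to compound for 4-6 hr at 37 deg C.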

Chain of UniProt P43220 (P43220 whole entry, looked up): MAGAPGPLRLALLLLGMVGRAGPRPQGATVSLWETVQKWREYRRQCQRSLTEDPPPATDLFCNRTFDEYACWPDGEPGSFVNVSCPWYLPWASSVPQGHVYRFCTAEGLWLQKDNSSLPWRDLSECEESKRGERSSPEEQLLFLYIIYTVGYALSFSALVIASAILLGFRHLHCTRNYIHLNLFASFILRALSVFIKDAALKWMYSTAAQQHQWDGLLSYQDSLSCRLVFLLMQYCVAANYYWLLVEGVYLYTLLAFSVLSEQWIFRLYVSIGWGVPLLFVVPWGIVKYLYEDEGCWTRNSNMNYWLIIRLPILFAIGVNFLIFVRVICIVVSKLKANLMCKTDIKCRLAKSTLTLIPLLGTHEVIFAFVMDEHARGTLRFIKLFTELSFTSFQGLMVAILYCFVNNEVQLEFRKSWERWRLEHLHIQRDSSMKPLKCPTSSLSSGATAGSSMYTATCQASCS

activation, inactive:
COc1ccc(/C=N/OCC(=O)NC(c2ccccc2)c2ccccc2)cc1OC 6.47%, CCNC(=O)OCCC12CC3CC(CC(C3)C1)C2 3.87%, CCOC(=O)c1c(-c2cccc([N+](=O)[O-])c2)cn2ccccc12 4.04%, CCNc1nnc(CSc2nc3ccccc3s2)s1 2.83%, COc1cc2cnc(-c3ccccc3)c(C(=O)c3ccc(F)cc3)c2cc1OC 9.41%, CCCCc1[nH]c(=O)c(C#N)c2c1CCCC2 2.15%, CSc1nnc(C)c(/C=C/Nc2ccc(F)cc2)n1 12.1%, COc1ccc(-c2oc3cccnc3c2-c2ccc(OC)nc2)cc1 18.1%, COc1ccc(-c2cc(C(=O)NC3=NCCS3)c3ccccc3n2)cc1OC 8.3%, CCOc1ccc(C(=O)NC(=S)Nc2ncccc2C)cc1[N+](=O)[O-] 2.11%, COc1cc(/C=C2/SC(=Nc3ccc(O)cc3)NC2=O)cc(OC)c1O 24.5%, CSc1ncccc1C(=O)OCc1c(F)cccc1Cl 5.02%, COc1ccc(-n2cnc3cc(NCc4ccco4)ccc32)cc1 6.51%, COc1ccc(-c2nnc(SCc3ccccc3F)o2)cc1OC 7.03%, O=CNc1cc(-c2ccccc2)cn2c(-c3ccc(F)c(Cl)c3)cnc12 28%, CCOC(=O)Nc1cc(OC)cc2ccc(C)nc12 -0.461%, CC(C)(C)CNc1cc(N2CCOCC2)ccc1[N+](=O)[O-] 7.76%, O=C(COc1ccccc1Cc1ccccc1)Nc1cccc(S(=O)(=O)N2CCOCC2)c1 4.02%, CCOC(=O)c1c(-c2ccccc2)nc2cc(C)ccn12 4.34%, CCOc1ccc(C2c3cc(OC)c(OC)cc3CC(=O)N2c2ccccc2)cc1 (centres undefined) 3.64%, CCc1ccc(S(=O)(=O)Nc2ccc(-c3ccc4nnc(C)n4n3)cc2)s1 14%, O=C(OCC1CC(c2ccccc2Cl)=NO1)c1ccc(Br)cc1 (centres undefined) -0.379%, CC1CN(c2nc(Nc3ccccc3)nc(N)c2[N+](=O)[O-])CC(C)O1 (centres undefined) 4.37%, Oc1ccc2ccccc2c1N=Nc1ccccn1 5.08%, Cc1c(C(=O)N(C)C(C)c2ccccn2)oc2c(F)cccc12 (centres undefined) 2.69%, COC(=O)c1ccc(-c2c(-c3ccccc3)ncc3cc(OC)c(OC)cc23)cc1 11.1%, CCc1cc2c(COC(=O)c3cccc(S(C)(=O)=O)c3)cc(=O)oc2cc1O 3.6%, CCNC(=O)CON=C1c2ccccc2-c2ccccc21 2.43%, CCCc1c(C)c2ccc(OCC(C)=O)cc2oc1=O 1.48%, COc1cccc(N2C(=O)CN(Cc3ccc(OC)c(OC)c3)C2=S)c1 2.73%, N#C/C(=C1\SCC(c2ccccc2Cl)S1)n1ccnc1 (centres undefined) -0.484%, CCCn1c2ccccc2c2nnc(SC(CC)C(=O)Nc3cc(C)on3)nc21 (centres undefined) 8.62%, S=c1[nH]nc(-c2ccc3ccccc3n2)n1-c1ccc2c(c1)OCCO2 2.41%, COc1ccccc1Nc1cc(C(=O)NCc2cccnc2)c2ccccc2n1 1.83%, O=C(c1ccc(COc2ccccc2Br)cc1)N1CCCCC1 2.86%, Cn1c2ccc(F)cc2c2nnc(SCC(=O)Nc3cccc(O)c3)nc21 5.35%, Cc1cccc(-c2nnc3sc(-c4ccccc4C)nn23)c1 21%, COC(=O)c1ccc(CSc2nc3ccccc3c(=O)n2-c2ccccc2)o1 19.4%, Cc1ccc(CNc2ccc([N+](=O)[O-])cc2C(N)=O)cc1 4.76%, CC1CCN(CCC(=O)Nc2ccc(Br)cc2)CC1 -1.4%, COc1cc2c(cc1OC)C(COc1ccccc1OC)N(C(=O)c1ccco1)CC2 (centres undefined) 6.89%, O=C(OCc1ccccc1C(F)(F)F)c1cc([N+](=O)[O-])ccc1N1CCOCC1 9.96%, CCOc1cc(CNC(=O)CCCn2c(=O)c3cccn3c3cccnc32)cc(OCC)c1OCC 12.7%, Cn1ccnc1SCC(=O)Nc1ccc(Cl)cn1 -1.47%, CCOC(=O)c1cc(-c2ccccc2)sc1NC(=O)C(C)Sc1nnc(C)s1 (centres undefined) 3.04%, COc1cccc(C(NC(C)=O)c2nc(-c3cccc(C#N)c3)cs2)c1 (centres undefined) 2.49%, Cc1cc(Br)c2c(c1)=C(c1sc(N3CCCCCC3)nc1O)C(=O)N=2 3.16%, CCCn1c(=O)c2c(C(=O)OCC)cc(-c3ccco3)nc2n(CCC)c1=O 2.78%, O=[N+]([O-])c1cccc(C(=NCc2ccccc2)NO)c1 1.52%, COc1ccc(CCN2C(=O)NC(NC(=O)CCc3ccccc3)(C(F)(F)F)C2=O)cc1OC (centres undefined) -2.07%, O=c1ccc2ccc(OCCOc3cccc(Cl)c3)cc2o1 6.88%, COc1cc(/C=C2\CC/C(=C\c3ccc(OCCO)c(OC)c3)C2=O)ccc1OCCO 16%, Cc1cccc(NC2=NCC(=O)N2Cc2ccccc2)c1 1.4%, Cc1cc(C)c(C)c(S(=O)(=O)Nc2cccc(-n3cnnn3)c2)c1C -0.249%, COc1cc(/C=C2\S/C(=N/S(=O)(=O)c3ccccc3)NC2=O)c([N+](=O)[O-])cc1OC 5.68%, CCCCn1cnc2c(SCc3ccc(Br)cc3)nc(N)nc21 14%, Nc1c2c(nc3sc4c(c13)CCCC4)-c1ccccc1CC2 7.69%, COc1ccc(/C=C2\Sc3ccc(C(=O)NC4CC4)cc3N(C)C2=O)cc1OC 24.1%, CCOc1ccc(-n2c(-c3ccccc3)c(C)n3c4c(=O)n(C)c(=O)n(C)c4nc23)cc1 -0.209%, COc1ccc(CCn2c(N)cc(=O)[nH]c2=S)cc1OC 14.7%, Cc1cc(C(F)F)n2ncc(C(=O)NCc3ccc(F)cc3)c2n1 5.01%, CCOC(=O)c1c(C)[nH]c(C2=NNC(=NC(C)COC)SC2)c1C (centres undefined) -0.776%, Cc1cc(Cl)c2oc(C(=O)N(C)Cc3cc(C)[nH]n3)c(C)c2c1 22.9%, CCCCN(CC)C(=O)c1cc2cc3ccc(Cl)cc3nc2o1 7.33%, CN(C)CCNc1ncnc2c1sc1nc(N3CCCC3)c3c(c12)CC(C)(C)OC3 18.5%, Cc1ccc(NC(=O)Nc2ccc([N+](=O)[O-])cc2)nc1 -0.803%, COc1ccc(OC)c(/C=N/NC(=S)NCCc2ccccc2)c1 5.93%, Cn1c2ccc(F)cc2c2ncn(Cc3ccco3)c(=O)c21 6.87%, COc1ccccc1C/C(N)=N/OC(=O)c1ccc(C)c([N+](=O)[O-])c1 27.5%, COc1ccc(S(=O)(=O)N2CCOC2CNC(=O)C(=O)NCCc2ccc(OC)c(OC)c2)cc1 (centres undefined) 7.95%, CCOC(=O)c1c(C)[nH]c(C(=O)OCc2c(C)noc2C)c1C 5.11%, O=C(COc1ccccc1Br)Nc1ccc2c(c1)OCCCO2 2.18%, CCOC(=O)/C(=C/C=C1\Sc2ccccc2N1CC)C(C)=O 16.3%, C=C(Cl)COc1ccc2c(CCC)cc(=O)oc2c1 3.86%, CC(C)N(C)c1ncnc2c1ncn2[C@H]1CN(Cc2cccs2)C[C@@H](CO)O1 8.33%, COc1cc(/C=C2\SC(=Nc3ccc(O)cc3)NC2=O)cc(OC)c1O 21.7%, Cc1ccccc1Oc1nc2ccccn2c(=O)c1/C=C(\C#N)C(=O)Nc1c(C)n(C)n(-c2ccccc2)c1=O 26.3%, CCN1CCN(c2nc3sc4c(c3c3ncnn23)CC(C)CC4)CC1 (centres undefined) 5.78%, COCCn1c(=O)[nH]c(=O)c2c1nc(-c1cc(Br)c3c(c1)OCO3)n2Cc1ccccc1 5.91%, CN(c1ccccc1)c1nc(N)c([N+](=O)[O-])c(NCc2ccccc2)n1 15.6%, C[C@@H](c1ncncc1F)C(O)(Cn1cncn1)c1ccc(F)cc1F (some centres undefined) -0.544%, CCCCn1cnc2c(SCc3ccc(Cl)cc3)nc(N)nc21 12.5%, O=S(=O)(c1ccc(Br)cc1)c1nc(-c2ccco2)oc1NCCCn1ccnc1 0.267%, OC(CNCc1ccc(Cl)c(Cl)c1)c1ccccc1 (centres undefined) 20%, COc1ccccc1Cc1c(-c2ccc(OC)c(OC)c2)nc2ccc(C)cn12 9.89%, Cc1ccc(NC(=O)Cc2nc(COC(=O)c3c(F)cccc3Cl)cs2)cc1 0.626%, COc1cc(Cl)c(C)cc1NC(=O)CN(C)Cc1cccc(OC)c1OC 3.34%, O=C(NCc1ccc(F)cc1)c1cc(C2CCCN(C(=O)c3cccs3)C2)on1 (centres undefined) 2.19%, CC(C)OCCCNCC(O)c1ccccc1 (centres undefined) 16.5%, COc1ccc(-c2nc(C#N)c(N3CCCCCC3)o2)cc1OC 23.8%, CC1(C)CCc2cc(-c3ccn(S(=O)(=O)c4ccccc4Cl)n3)ccc2O1 2.77%, C=C(C)COc1ccc2c(CC)cc(=O)oc2c1C 5.78%, COc1cccc(-c2cnc3c(NC=O)cc(-c4ccc(N(C)C)cc4)cn23)c1 27.5%, O=C1CC(c2ccc(F)cc2)Sc2ccccc2N1 (centres undefined) 2.5%, Cc1ccc(-c2nnc3c4ccccc4c(C)nn23)cc1S(=O)(=O)N1CCN(CCO)CC1 23.3%, CCOC(=O)C(C)Sc1nc(-c2ccccc2)ccc1C#N (centres undefined) 5.89%, CCN(CC)CCNc1ncnc2c1sc1nc(N3CCCC3)c3c(c12)CC(C)(C)OC3 21.4%, CCN(CC)/C(=N\S(=O)(=O)c1ccc(F)cc1)c1ccccc1 -0.814%, COC(=O)C1=CN(Cc2ccc(OC)c(OC)c2)C=C(C(=O)OC)C1c1cccc(F)c1 2.23%, COc1ccccc1Nc1nc(Cl)nc(Nc2ccccc2OC)n1 7.81%, O=C(O)c1cccc(CSc2ncccn2)c1 -1.14%, CCN1/C(=C/C(=S)Nc2ccccc2)Sc2ccccc21 1.16%, c1ccc(Cn2c(-c3cncs3)nc3ccccc32)cc1 2.44%, COc1cccc(-n2c(SCC(=O)Nc3c(C)cc(C)cc3C)nc3c([nH]c4ccccc43)c2=O)c1 2.93%, COc1ccc(C(N)c2nccc3cc(OC)c(OC)cc23)cc1OC (centres undefined) 9.93%, CN(C)CCNC(=O)c1cccc(-c2cnc3c(NC=O)cc(-c4cccc(F)c4)cn23)c1 7.6%, COC(=O)[C@@H]1CCCN1C(=O)c1cc(COc2cccc3cccnc23)on1 -0.35%, CCn1c(SCC(=O)N/N=C/c2ccc(OC)c(OC)c2)nc2ccccc21 18.6%, COc1ccc(CN(C)C(=O)c2oc3ccccc3c2CSC)cc1F 5.49%
